Several values for one entry are separate records, joined by “and”; a condition that tells them apart may be missing. Equal entries are not always repeated.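 A five-concentration, 48-hour dose response in 96-well plates underlies each endpoint, interpolated linearly between surrounding concentrations. GI50 is the concentration that inhibits growth by half. TGI is the concentration that stops growth completely.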 A value given as a limit tells only on which side of the number the result lay.

The assay concerns NCI-H322M lung. Description: inhibition of tumour cell growth, NCI panel, 48 h.
On to `COc1ccc(CCNC(=O)c2ccc(NC3=C(Cl)C(=O)N(Cc4ccccc4)C3=O)cc2)cc1OC`, for which the GI50 is 22.9 µM and the TGI is 58.5 µM. Turning to `COc1ccc(NC(=O)N(C)CC2(O)CCC(C(C)(C)C)CC2)cc1` (stereo unspecified), the TGI was greater than 100 µM. Still for that read-out and setting: the same measure for `O=S1(=O)Cc2ccc3c4c2-c2c(ccc5ccc(c-4c25)CS(=O)(=O)C3)C1`: greater than 100 µM. `O=S(=O)(c1ccccc1)C1CN2OC1(S(=O)(=O)c1ccccc1)CC2c1ccc(Br)cc1` (stereo unspecified) yielded a TGI greater than 100 µM. Same read-out and setting: the same measure for `N#CC(C(=O)C(=O)Nc1ccc(Cl)cc1)c1ccccc1` (stereo unspecified): greater than 100 µM. For the compound `O=C1NC(=O)/C(=C\c2ccccc2)C2=C1CCCC2`, the GI50 was 16 µM and the TGI is 30.4 µM. As for `Cc1ccccc1N/C(=C(/C(Cl)=C(Cl)Cl)[N+](=O)[O-])n1nnc2ccccc21`, the TGI amounted to 63.5 µM. Still for that read-out and setting: the value for `CCCCCC(=O)CCCCCCCC(O)CC(=O)OCC` (stereo unspecified) was greater than 100 µM; that for `CC(=O)O[C@H]1CCC2[C@@H]3CCC4Nc5[nH]ncc5C[C@]4(C)C3CC[C@@]21C` (stereo partly specified) was greater than 100 µM.

In the case of `[N-]=[N+]=Nc1cc(=O)[nH]nc1-c1ccccc1`, the TGI is greater than 100 µM. `Cc1cc(C)nc(NS(=O)(=O)c2ccc(NC(=O)c3cccc4c(Nc5ccc(S(N)(=O)=O)cc5)c5ccccc5nc34)cc2)n1`: the TGI turned out to be 47 µM. As for `CCCCCOc1ccc(/C=N/Nc2cc(C)nc3ccc(Br)cc23)cc1`, the GI50 is 1.74 µM and the TGI turned out to be 3.16 µM. As for `Nc1nc(NCC2(CO)CC2)cc(=O)[nH]1`, the TGI is greater than 100 µM. Still for that read-out and setting: the value for `CC(=O)O[C@H]1CCC2[C@@H]3CCC4Nc5oncc5C[C@]4(C)C3CC[C@@]21C` (stereo partly specified) was greater than 10 µM. The same measure, in the same setting: the value for `Cc1cn(C2CC(O)C(CO[Si](C)(C)C(C)(C)C)OC2OC(C)C)c(=O)[nH]c1=O` (stereo unspecified) was greater than 100 µM. The same measure, in the same setting: the same measure for `COc1ccc2[nH]c3c(c2c1)CC(=S)N1CCCC(CC3=O)C1` (stereo unspecified): greater than 100 µM.

`CCOC(=O)CO/N=C1/C(c2c(O)[nH]c3ccccc23)=Nc2ccccc21` gave a TGI greater than 100 µM.

`CNC(=S)N=Nc1c(O)n(CN2CCOCC2)c2ccc([N+](=O)[O-])cc12` gave a TGI of 46.8 µM. As for `CC1(C)CC(=O)C(C=NC(=O)c2ccncc2)=C(O)C1`, the TGI is greater than 100 µM. The same measure, in the same setting: the same measure for `CNS(=O)(=O)NNS(=O)(=O)c1ccc(Br)cc1`: greater than 100 µM. For the compound `Cc1[nH]c(/C=C2\C(=O)Nc3ccccc32)c(C)c1CCC(=O)O`, the GI50 is 19.1 µM and the TGI was greater than 100 µM. For `CCn1sc2ccccc2c1=O`, the TGI was greater than 54.1 µM. Still for that read-out and setting: the value for `C=C(C(=O)O)[C@@H]1C[C@@H](OC(C)=O)[C@]2(C)CC/C=C(\C)CCC[C@H](C)[C@H](O)[C@@H]1O2` was greater than 100 µM. The same measure, in the same setting: the same measure for `O=C(N[C@@H](c1ccccc1)[C@@H](O)C(=O)OCc1ccc([N+](=O)[O-])cc1)c1ccccc1`: greater than 100 µM. Consider `Cc1cc(C)c(/C=C2\C(=O)Nc3ccc(NC(=O)CCCCCCC(=O)NO)cc32)[nH]1`, for which the GI50 is 3.01 µM and the TGI was greater than 100 µM.

`O=C(O)C1C2C=CC(C2)C1c1ccccc1` (stereo unspecified) had a TGI greater than 100 µM. In turn, `CC(=O)Oc1ccccc1C(=O)Nc1ncc([N+](=O)[O-])s1` gave a TGI greater than 93.1 µM.

In turn, `O=C(O)c1ccc(OCc2ccccc2)c(Cl)c1` gave a TGI greater than 100 µM.

In the case of `O=C1NC(=NCCc2cccc(Cl)c2)S/C1=C\c1ccc2ncccc2c1`, the GI50 was greater than 25 µM and the TGI is greater than 25 µM. As to `O=C1c2ccccc2-c2c1c1ccccc1c(=O)n2CCCCl`, the GI50 was 14 µM and the TGI was 61.7 µM. The like results for `COc1ccc(O)c(C(=O)c2ccc(C(=O)N[C@H]3CCCNC[C@@H]3NC(=O)c3ccncc3)cc2)c1F` were, in that order, 6.79 µM and greater than 25 µM. In turn, `O=[N+]([O-])/C(C(Cl)=C(Cl)Cl)=C(/Nc1ccccc1)SCc1ccccc1` yielded a TGI of 69.5 µM. The same measure, in the same setting: the value for `COC(=O)[C@H](Cc1c[nH]c2ccccc12)NC(=O)c1ccc(CNC(=O)/C(C)=C/c2ccccc2)cc1` was greater than 100 µM; that for `COc1ccc(CC2c3cc(OC)c(OC)cc3CC[N+]2(C)C)cc1OC` (stereo unspecified) was greater than 100 µM. Consider `CC(=O)O[C@H]1CC[C@@]2(C)C(=CC[C@@H]3[C@@H]2CC[C@]2(C)NC(=O)/C(=C\c4ccccc4)C[C@@H]32)C1`, for which the TGI was 30.9 µM.

`O=C1NC(=O)C(c2c[nH]c3ccccc23)=C1c1cn(C(c2ccccc2)(c2ccccc2)c2ccccc2)cn1` yielded a TGI of 47.2 µM. On to `CC1=CCC(C)=Nc2nc3ccccc3n21`, for which the TGI was greater than 100 µM. In turn, `Cc1nc2sc3c(c2c(=O)[nH]1)CCCC3` showed a TGI greater than 100 µM. Still for that read-out and setting: the same measure for `COc1ccc(-c2coc3c4c(ccc3c2=O)OCO4)cc1OC`: greater than 100 µM; for `Fc1ccc(C(=C2CCN(CCc3ccc4[nH]c(=S)[nH]c4c3)CC2)c2ccc(F)cc2)cc1`: 24.5 µM. In the case of `O=C(Nc1ccc(-n2ccc3c(NC(=O)c4ccccc4)nccc32)cc1)Nc1ccc(Cl)c(Cl)c1`, the GI50 is 2.13 µM and the TGI amounted to 6.01 µM. Compound `CC(C)CC(NC(=O)C(CI)Cc1ccccc1)C(=O)Nc1ccccc1` (stereo unspecified) yielded a TGI greater than 100 µM. For the compound `COc1cc2c(OC)cc1CSCc1sc(C)c(c1Br)CSC2`, the TGI is greater than 100 µM. For the compound `O=C(c1ccc(/C=C/c2n[nH]c3ccccc23)cc1)N1CCNCC1`, the GI50 was > 10 µM and 7.27 µM; the TGI is > 10 µM and 27.8 µM.

In the case of `O=C(c1cccs1)N(C(=O)N1CCN(c2ccccc2)CC1)S(=O)(=O)c1ccccc1`, the TGI was greater than 100 µM. In turn, `Cc1nc(-[n+]2nc(-c3ccncc3)nn2-c2ccccc2)sc1C` came in with a TGI greater than 100 µM. As to `COc1cc2c(c(OC)c1OC)-c1ncc3cc4c(cc3c1C2)OCO4`, the GI50 was 17.4 µM and the TGI was 59.9 µM.

As for `COC1(OC)CC2C(=O)N(Cc3ccccc3)C1C=C2S(=O)(=O)c1ccccc1` (stereo unspecified), the TGI is greater than 100 µM. The same measure, in the same setting: the same measure for `c1ccc2c(c1)c1c(c3ccccc32)CN2CCCC2C1` (stereo unspecified): 62.4 µM; for `CC(C)C(=O)Nc1nc2c(ncn2C2OC(CO)C(O)C2O)c(=O)[nH]1` (stereo unspecified): greater than 100 µM; for `CC(=O)N(CCc1ccccc1)C(C#N)c1ccccc1` (stereo unspecified): greater than 100 µM. Same read-out and setting: the same measure for `CCC(=O)O[C@H]1CC[C@H]2[C@@H]3CCC4=C/C(=N/OC(=O)c5cccc6c(=O)c7ccccc7[nH]c56)CC[C@]4(C)[C@H]3CC[C@]12C`: greater than 100 µM; for `CC1=NC(=Cc2cc(Br)cc(Br)c2)C(=O)N1n1c(-c2ccccc2)nc2ccccc2c1=O`: greater than 100 µM; for `O=C(Oc1cccnc1)c1cc2cc(CCl)ccc2oc1=O`: greater than 100 µM.

As to `N#Cc1c(N/N=C/c2ccc(Cl)cc2Cl)nc(N)nc1N1CCCC1`, the GI50 was 60.4 µM and the TGI was greater than 100 µM.

`COc1cc(OC)c(/C=C/c2c3ccccc3cc[n+]2C)c(OC)c1`: the GI50 was 3.48 µM and the TGI worked out at 29 µM. In the case of `COC(=O)/C=C/c1c(CC=C(C)C)ncn1C`, the TGI is greater than 100 µM. Same read-out and setting: the same measure for `COc1ccc2c(c1)C(=O)OCCC2`: greater than 100 µM.

Regarding `COc1cc(C(C)=O)cc(C(=O)N(C(C)C)C(C)C)c1[Si](C)(C)C`, the TGI is greater than 100 µM. In turn, `O=C(CCc1cc(O)ccc1O)OCCc1ccccc1` had a TGI greater than 100 µM. The same measure, in the same setting: the value for `CCOC(=O)/C=C/[C@H](O[Si](CC)(CC)CC)C(C)(C)C` was greater than 100 µM.

Consider `N#CC1=C(N)Oc2cc(O)ccc2C1c1cccc2ccccc12` (stereo unspecified), for which the GI50 is 17.4 µM and the TGI was 33.9 µM. The compound `O=C(/C=C/c1ccc(OCc2cccc(Cl)c2)cc1)NO` registered a TGI of 44.8 µM. On the same count and under the same terms, the value for `COc1cc(N=Nc2cccc(S(=O)(=O)O)c2)ccc1N=Nc1ccc(/C=C/c2ccc(-n3on3-c3ccc(/C=C/c4ccc(N=Nc5ccc(N=Nc6cccc(S(=O)(=O)O)c6)cc5OC)cc4S(=O)(=O)O)c(S(=O)(=O)O)c3)cc2S(=O)(=O)O)c(S(=O)(=O)O)c1` was greater than 100 µM; that for `S=c1[nH]c(=S)c2nnn(-c3ccccc3)c2[nH]1` was greater than 100 µM.

As to `S=C1SSC2N=CC=CC12` (stereo unspecified), the TGI was greater than 100 µM. Turning to `O[C@H](c1cc(C(F)(F)F)nc2c(C(F)(F)F)cccc12)[C@@H]1CCCCN1`, the GI50 was 4.95 µM and the TGI came to 14.6 µM. In turn, `CCOc1ccncc1[N+](=O)[O-]` gave a TGI greater than 100 µM. Same read-out and setting: the same measure for `COC1=CC2C(c3cc4ccccc4n3S(=O)(=O)c3ccccc3)CC1CN2C(=O)OCc1ccccc1` (stereo unspecified): greater than 100 µM; for `Ic1cccc(/C=C/CN2CCN(CCOC(c3ccccc3)c3ccccc3)CC2)c1`: 57.2 µM.

For the compound `COCC1(CO)C(=O)C2CCN1CC2` (stereo unspecified), the GI50 is greater than 58.4 µM and the TGI was greater than 100 µM. In turn, `Cc1ccc(S(=O)(=O)c2ccc(N)cc2)cc1` returned a TGI greater than 100 µM. Same read-out and setting: the same measure for `O=C(c1ccccc1)c1c(-c2ccccc2)n(-c2ccccc2)[nH]c(=O)c1=O`: greater than 100 µM. The same measure, in the same setting: the same measure for `CCCCCCOc1ccc(Nc2c(O)c3c(c(O)c2Cl)C(=O)C=CC3=O)cc1`: 7.04 µM; for `CC(=O)Oc1ccc2c(c1)c1c(=O)oc(C)nc1n2Cc1ccccc1`: greater than 100 µM. Same read-out and setting: the value for `O=C(/C=C/c1ccccc1Cl)NC1C=Nc2ccc([N+](=O)[O-])cc2NC1` (stereo unspecified) was greater than 100 µM; that for `Cc1cc(C2CC(O)C(CO)O2)c(F)cc1F` (stereo unspecified) was greater than 100 µM. As to `CCN1C(=O)N(CC)C2C1NN=c1s/c(=C3\C(=O)N(CC(C)(C)C)c4ccccc43)c(=O)n12` (stereo unspecified), the GI50 was 12.5 µM and the TGI came out at 47.2 µM. `O=C1NP23(OCCO2)Oc2ccccc2C3(C(F)(F)F)O1` (stereo unspecified) showed a TGI greater than 100 µM. In turn, `COc1cccc2cc(C(=O)O)c(=O)oc12` yielded a TGI greater than 100 µM. Same read-out and setting: the value for `CC(C)N(C(=O)C12C3C4C1(I)C1C2C3(I)C41C(=O)N(C(C)C)C(C)C)C(C)C` (stereo unspecified) was greater than 100 µM. Turning to `NC(=O)OCCn1cc(-c2nc(-c3c[nH]c4ncccc34)cs2)c2ccccc21`, the GI50 is 1.95 µM and the TGI amounted to 10.7 µM.

With `Cc1nn(C(=O)Cc2ccccc2)c2c1C(c1ccc(Cl)cc1)SC(N)=N2` (stereo unspecified), the TGI is greater than 100 µM.

The values above are taken from PubChem BioAssay (NCI).
